The results in this text go back to a collection of fitness landscapes (doi:10.1126/science.1257360).

Some of the results follow.

The labels stand for the following.
B1: PhoQ; a variant is named by its letters at X, in order, P23837 (parent)
chain: MKKLLRLFFPLSLRVRFLLATAAVVLVLSLAYGMVALIGYSVSFDKTTFRLLRGESNLFYTLAKWENNKLHVELPENIDKQSPTMTLIYDENGQLLWAQRDVPWLMKMIQPDWLKSNGFHEIEADVNDTSLLLSGDHSIQQQLQEVREDDDDAEMTHSVAVNVYPATSRMPKLTIVVVDTIPVELKSSYMVWSWFIYVLSANLLLVIPLLWVAAWWSLRPIEALAKEVRELEEHNRELLNPATTRELTSLVRNLNRLLKSERERYDKYRTTLTDLTHSLKTPLXXLQXXLRSLRSEKMSVSDAEPVMLEQISRISQQIGYYLHRASMRGGTLLSRELHPVAPLLDNLTSALNKVYQRKGVNISLDISPEISFVGEQNDFVEVMGNVLDNACKYCLEFVEISARQTDEHLYIVVEDDGPGIPLSKREVIFDRGQRVDTLRPGQGVGLAVAREITEQYEGKIVAGESMLGGARMEVIFGRQHSAPKDE

The assay covers variants of B1. The assay is described as follows: enrichment ratio after two sorts for PhoP signalling (ratio (wild type AVST 3.29)); higher = more functional. The following applies: with PhoP (E. coli).
Take YCQP: the enrichment ratio is ≤ 0.25. As for AVPC, the figure is ≤ 0.25; as for NWVM, ≤ 0.25. As for SQFM, the enrichment ratio is 0.495. As for HVRP, the figure is ≤ 0.25; as for GPEW, ≤ 0.25; as for GLTE, ≤ 0.25. As for VMNQ, the figure is ≤ 0.25. Regarding WMTP, the enrichment ratio is ≤ 0.25. As for HTVS, the enrichment ratio was ≤ 0.25. As for PWFM, the figure is ≤ 0.25. As for GFKA, the figure is ≤ 0.25; as for NFVD, ≤ 0.25.

On to AQFV, for which the enrichment ratio is ≤ 0.25. As for WPCF, the figure is ≤ 0.25; as for LKHA, ≤ 0.25; as for KGAD, ≤ 0.25.

As to SCWI, the enrichment ratio worked out at 1.23. As for IPAY, the enrichment ratio is ≤ 0.25.

Take RQPH: the enrichment ratio is ≤ 0.25.

Turning to QLVR, the enrichment ratio is ≤ 0.25. Regarding THAY, the enrichment ratio stood at 5.94. As for QASF, the figure is 2.77; as for PRFC, ≤ 0.25; as for PVHI, ≤ 0.25.

For ALVC, the enrichment ratio is ≤ 0.25. Next, PDNR: ≤ 0.25; GKFN: ≤ 0.25; PHKA: ≤ 0.25. As to HDMP, the enrichment ratio was ≤ 0.25. Next, EGRE: ≤ 0.25; QFMQ: ≤ 0.25. Next, HYFG: ≤ 0.25. Next, FVMT: ≤ 0.25. Take DEVT: the enrichment ratio was ≤ 0.25. For the variant TCIH, the enrichment ratio is ≤ 0.25.

As to QYQH, the enrichment ratio is ≤ 0.25. Regarding VNCG, the enrichment ratio came to 0.455.

In the case of NVWH, the enrichment ratio is ≤ 0.25. As for LFCH, the enrichment ratio is ≤ 0.25.

EYVS: the enrichment ratio is ≤ 0.25. Take AGEE: the enrichment ratio was ≤ 0.25. Turning to YRVS, the enrichment ratio was ≤ 0.25. In the case of WRNL, the enrichment ratio is ≤ 0.25. Turning to RTHK, the enrichment ratio is ≤ 0.25. With ATVM, the enrichment ratio turned out to be 6.8.

As for LYHL, the enrichment ratio was ≤ 0.25.

In the case of YNNC, the enrichment ratio turned out to be 0.618. As for HTLH, the figure is ≤ 0.25; as for ICVP, ≤ 0.25; as for YHMC, ≤ 0.25. Next, LNGL: ≤ 0.25; MHRR: ≤ 0.25.

In the case of ALLY, the enrichment ratio was ≤ 0.25. As for HTPQ, the figure is ≤ 0.25.

Take DHCL: the enrichment ratio was ≤ 0.25.

For the variant TQMA, the enrichment ratio worked out at 12.7. Next, SPAI: ≤ 0.25; KCTE: ≤ 0.25; EKLR: ≤ 0.25. As for QNVM, the figure is ≤ 0.25. For the variant ISET, the enrichment ratio is ≤ 0.25.

As to GYAQ, the enrichment ratio is ≤ 0.25.

On to DRHE, for which the enrichment ratio was ≤ 0.25. As for KCEP, the enrichment ratio is ≤ 0.25. Next, HMTN: ≤ 0.25.

Regarding NYKN, the enrichment ratio is ≤ 0.25. Next, YRDN: ≤ 0.25; YTAF: ≤ 0.25. Next, EVHV: ≤ 0.25; IFFD: ≤ 0.25; ISWY: ≤ 0.25. Next, PEWH: ≤ 0.25; MHCL: ≤ 0.25. Consider MRRK, for which the enrichment ratio was ≤ 0.25. For the variant LTAM, the enrichment ratio was ≤ 0.25. Consider RHPR, for which the enrichment ratio is ≤ 0.25. Take NDVD: the enrichment ratio is ≤ 0.25.

For DWNI, the enrichment ratio is ≤ 0.25. Turning to WDSP, the enrichment ratio was ≤ 0.25.

Regarding GTDD, the enrichment ratio was ≤ 0.25. Next, LLSV: ≤ 0.25; SHHK: ≤ 0.25.

Turning to TSFL, the enrichment ratio came to 0.706. Turning to QNFM, the enrichment ratio was ≤ 0.25. As for MYKD, the enrichment ratio was ≤ 0.25. Consider SKIV, for which the enrichment ratio amounted to 4.99.

Turning to AEAN, the enrichment ratio amounted to 28.2. Next, DMMG: ≤ 0.25. Turning to IHRF, the enrichment ratio was ≤ 0.25. As for PEFG, the figure is ≤ 0.25; as for ITEW, ≤ 0.25; as for YMHK, ≤ 0.25. Next, LCDC: ≤ 0.25; SMLQ: 3.61; NNKV: ≤ 0.25. Next, YDFS: ≤ 0.25; VVMW: ≤ 0.25. For HRVH, the enrichment ratio was ≤ 0.25. In the case of NLHD, the enrichment ratio is ≤ 0.25. As to VERE, the enrichment ratio is ≤ 0.25. As for MTQP, the figure is ≤ 0.25. Turning to LNQP, the enrichment ratio is ≤ 0.25. Next, EHSN: ≤ 0.25; TIEA: ≤ 0.25. As for FQMK, the figure is ≤ 0.25; as for DPYQ, ≤ 0.25. For AQSF, the enrichment ratio worked out at 11.9. Next, HNAL: ≤ 0.25; WCPC: ≤ 0.25; VMIE: ≤ 0.25. As for QIWK, the figure is ≤ 0.25. In the case of DNVN, the enrichment ratio was ≤ 0.25. In the case of AIGC, the enrichment ratio stood at 5.62. Next, MLRS: ≤ 0.25; EKVA: ≤ 0.25; ETGQ: ≤ 0.25. For the variant KEEH, the enrichment ratio is ≤ 0.25. For ACPM, the enrichment ratio was determined as 0.39. In the case of NKWN, the enrichment ratio was ≤ 0.25. Regarding PPTC, the enrichment ratio was ≤ 0.25. Next, WSSI: ≤ 0.25; IYLE: ≤ 0.25.

Regarding WVML, the enrichment ratio is ≤ 0.25. As to NNYG, the enrichment ratio was ≤ 0.25. Next, AVQY: ≤ 0.25; TDMI: 27.6; FSRH: ≤ 0.25. Next, RGVH: ≤ 0.25; TFPE: ≤ 0.25. In the case of QNHY, the enrichment ratio was ≤ 0.25.

Consider KMDS, for which the enrichment ratio was ≤ 0.25. For TRDE, the enrichment ratio was ≤ 0.25. As to QNFW, the enrichment ratio was ≤ 0.25. Take ANFV: the enrichment ratio was ≤ 0.25.

Take KEAG: the enrichment ratio is ≤ 0.25.

In the case of ATEL, the enrichment ratio is ≤ 0.25. Turning to WHNG, the enrichment ratio is ≤ 0.25. As for HMLF, the figure is ≤ 0.25; as for MWTC, ≤ 0.25. As for TRIF, the figure is ≤ 0.25.

For the variant FDVY, the enrichment ratio is ≤ 0.25. As for YDDQ, the figure is ≤ 0.25; as for HFRQ, ≤ 0.25; as for MRSD, ≤ 0.25. Take ERPI: the enrichment ratio is ≤ 0.25. With HFRE, the enrichment ratio was ≤ 0.25. Next, FGMH: ≤ 0.25; KMFY: ≤ 0.25.

On to QTPR, for which the enrichment ratio was ≤ 0.25. As for KRDD, the figure is ≤ 0.25; as for QPVF, ≤ 0.25; as for FKTL, ≤ 0.25.

Consider ICPD, for which the enrichment ratio was ≤ 0.25. As for FRLN, the figure is ≤ 0.25; as for QQLC, ≤ 0.25; as for RLQV, ≤ 0.25. As for NRQF, the figure is ≤ 0.25. In the case of LCYM, the enrichment ratio is ≤ 0.25. In the case of KVQS, the enrichment ratio is ≤ 0.25. Next, AGVQ: 10.8; TQLI: 11.2; FKQR: ≤ 0.25. Next, MHAH: ≤ 0.25; GIPS: ≤ 0.25. As for PHRV, the figure is ≤ 0.25; as for SLYI, ≤ 0.25; as for DLEF, ≤ 0.25. MLFV: the enrichment ratio was ≤ 0.25. For the variant QTTQ, the enrichment ratio is ≤ 0.25. Next, VYAK: ≤ 0.25; WIFG: ≤ 0.25; QLCG: ≤ 0.25.

On to AWNG, for which the enrichment ratio is ≤ 0.25.

Consider EMGG, for which the enrichment ratio is ≤ 0.25. In the case of IDIP, the enrichment ratio was ≤ 0.25. Next, SWVR: ≤ 0.25; WDVE: ≤ 0.25. As to FHYE, the enrichment ratio is ≤ 0.25.

Turning to QRIG, the enrichment ratio is ≤ 0.25. Consider QTLV, for which the enrichment ratio is ≤ 0.25. Next, SDQG: ≤ 0.25.

As to FWKL, the enrichment ratio is ≤ 0.25. Next, QSIQ: ≤ 0.25. Next, WTEG: ≤ 0.25; NPYR: ≤ 0.25; LPYA: ≤ 0.25. Regarding RPYP, the enrichment ratio is ≤ 0.25. Next, DMSA: ≤ 0.25; DHIH: ≤ 0.25; STQL: 17.1. As for SFYV, the figure is ≤ 0.25; as for SFFP, ≤ 0.25; as for KKRN, ≤ 0.25. On to YMWR, for which the enrichment ratio was ≤ 0.25.
